# Experimental data taken from PubChem BioAssay (NCATS).
# Inconclusive means that the source gave no clear call. Such entries were picked first, then a sample of the others. For some assays here: Potencies of inconclusive entries are left out as doubtful fits. For some assays here: A note “side channel” means that the fit belongs to a control or component signal, not to the main read-out. Activity calls are given as the source filed them. Unless noted, the call rests on the fitted dose curve; in most records, active means well fitted curve in the direction sought with a large enough effect in the repeat runs; inconclusive means weak or mixed curves; inactive means no such curve, though single readings can be large; an effect the other way counts as inactive or inconclusive.
# Key:
# [1] = target: Estrogen receptor (Homo sapiens) (UniProt P03372); test: qHTS assay for small molecule antagonists of estrogen receptor alpha signaling (AID 588513; active means well fitted curve in the direction sought with a large enough effect in the signal ratio, with a control signal flat, not every such curve was filed as active; inconclusive means small, poorly fitted or top-dose-only effect, or effect the other way, or a change in a side signal; inactive means no such curve, though single readings can be large or run the other way; the % refers to the signal ratio; further: on the % scale 0 is the no-effect control and ±100 the full control effect); details: ER-alpha-UAS-bla HEK293, beta-lactamase ratio, antagonist mode; activity, negative = inhibition: at 76.9 µM (top of the series) unless noted
# How it was run: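 ER-alpha-UAS-bla GripTite HEK 293 cells in 2% charcoal/dextran-treated FBS medium; compounds titrated (1:2, duplicate), then stimulated with 0.5 nM 17-beta-estradiol for 18 h at 37C. CCF4 beta-lactamase fluorescence; Hill-fit IC50 and efficacy.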
# [2] = target: Peroxisome proliferator-activated receptor delta (Homo sapiens) (UniProt Q03181); test: qHTS assay for small molecule antagonists of peroxisome proliferator-activated receptor delta signaling (AID 588535; active means well fitted inhibition curve with a large enough effect in the signal ratio, with a control signal flat, not every such curve was filed as active; inconclusive means small, poorly fitted or top-dose-only effect, or effect the other way, or a change in a side signal; inactive means no such curve, though single readings can be large or run the other way; the % refers to the signal ratio); details: HEK293T PPARd-UAS-bla, beta-lactamase FRET ratio, 18 h; activity change, negative = inhibition: at 76.7 µM (top of the series) unless noted
# How it was run: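 HEK293T PPAR-delta-UAS-bla cells, 4000/well, 2% charcoal/dextran FBS; 5 h 37 C; cpd titration; 18 h 37 C; CCF4 2 h RT; FI 460/530 nm; Hill fit → IC50, efficacy.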
# [3] = target: Peroxisome proliferator-activated receptor gamma (Homo sapiens) (UniProt P37231); test: qHTS assay for small molecule antagonists of peroxisome proliferator-activated receptor gamma signaling (AID 588537; active means well fitted inhibition curve with a large enough effect in the signal ratio, with a control signal flat, not every such curve was filed as active; inconclusive means small, poorly fitted or top-dose-only effect, or effect the other way, or a change in a side signal; the % refers to the signal ratio;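 further: reporter cells co-stimulated with 50 nM rosiglitazone agonist during compound treatment; % of control where 0% means no effect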); details: HEK293 PPARg-UAS-bla, beta-lactamase ratio, antagonist mode; activity, negative = inhibition: at 76.8 µM (top of the series) unless noted
# How it was run: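 Antagonist mode, beta-lactamase reporter in HEK293; charcoal/dextran FBS 1%; 3000 cells/well, 37 C 6-6.5 h; cpd titration + rosiglitazone 50 nM final, 16 h 37 C; CCF4, 2 h RT; 460/530 nm; Hill fit → IC50, efficacy.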
# [4] = target: Thyroid hormone receptor beta (Homo sapiens) (UniProt P10828); test: qHTS assay for small molecule antagonists of thyroid hormone receptor beta signaling (AID 588547; active means well fitted inhibition curve with a large enough effect in the signal ratio, with a control signal flat, not every such curve was filed as active; inconclusive means small, poorly fitted or top-dose-only effect, or effect the other way, or a change in a side signal; the % refers to the signal ratio; further: potency means the concentration at half of the fitted maximal effect); details: TR-UAS-bla HEK293, beta-lactamase ratio, antagonist mode, 18 h
# How it was run: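 Inhibition of T3-driven (0.4nM final) beta-lactamase reporter activity was measured over 0.59 nM to 92 uM compound after 18 h at 37 C. The cells were GripTite HEK293 TR-UAS-bla in charcoal/dextran-stripped serum, with CCF4 ratio read-out and IC50 from Hill fits.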
# [5] = target: Peroxisome proliferator-activated receptor gamma (Homo sapiens) (UniProt P37231); test: qHTS assay for small molecule agonists of peroxisome proliferator-activated receptor gamma signaling (AID 588536; active means well fitted curve in the direction sought with a large enough effect in the signal ratio, with a control signal flat, not every such curve was filed as active; inconclusive means small, poorly fitted or top-dose-only effect, or effect the other way, or a change in a side signal; inactive means no such curve, though single readings can be large or run the other way; the % refers to the signal ratio; further: potency means the concentration at half of the fitted maximal effect;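 on activation: 0% = DMSO basal wells and 100% = rosiglitazone at 2 µM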); details: HEK293 PPARg-UAS-bla, beta-lactamase ratio, 16 h; activation: at 76.7 µM (top of the series), percent of rosiglitazone response, DMSO as zero
# How it was run: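 GeneBLAzer PPAR-gamma-UAS-bla HEK293 cells in 1% charcoal/dextran-treated FBS medium were treated 16 h at 37 C with compounds. Beta-lactamase activity was read by CCF4 ratio (460/530 nm). Response was normalized to 2 uM rosiglitazone (100%) and DMSO, then Hill-fitted for EC50 and efficacy.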
# [6] = target: Vitamin D3 receptor (Homo sapiens) (UniProt P11473); test: qHTS assay for small molecule antagonists of vitamin D receptor signaling (AID 588541; calls by dose curve;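 further: receptor activated by calcitriol during compound treatment; on the % scale 0 is the no-effect control and ±100 the full control effect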); details: HEK293T VDR-UAS-bla, beta-lactamase ratio, antagonist mode; activity change, negative = inhibition: at 76.7 µM (top of the series)
# [7] = qHTS assay for small molecule agonists of the antioxidant response element (ARE) signaling pathway (AID 651741; active means well fitted activation curve with a large enough effect in the signal ratio; inconclusive means small, poorly fitted or top-dose-only effect, or effect the other way, or a change in a side signal; the % refers to the signal ratio; further: % of control where 0% means no effect); details: HepG2 ARE-bla reporter, beta-lactamase FRET ratio, 16 h; activation: at 96 µM (top of the series) unless noted
# How it was run: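 Quantitative HTS in HepG2 cells stably expressing an ARE-beta-lactamase reporter; 16 h compound exposure at 37 C, followed by 2 h room-temperature incubation with LiveBLAzer B/G FRET substrate and fluorescence measurement.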
# [8] = Cell Viability - LYMP2-012 (AID 982; active means well fitted curve in the direction sought with a large enough effect; inconclusive means small, poorly fitted or top-dose-only effect, or another doubt; inactive means no such curve, though single readings can be large; an effect the other way counts as inactive or inconclusive;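 further: cellular ATP by luciferase luminescence where a drop means cytotoxicity; cells exposed to compound for one day before reading; 0% = DMSO only and full loss = 92 µM tetraoctylammonium bromide; nearly all actives have a fitted effect of over 55% in size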); details: LYMP2-012 lymphoblastoid cell viability qHTS; activity change, negative = cytotoxicity: at 92.2 µM (top of the series)
# [9] = target: Retinoic acid receptor RXR-alpha (Homo sapiens) (UniProt P19793); test: qHTS assay for small molecule agonists of retinoid X receptor alpha signaling (AID 588544; calls by dose curve;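 further: 0% = DMSO basal wells and 100% = reference agonist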); details: HEK293T RXRa-UAS-bla, beta-lactamase reporter, 18 h; activation: at 76.7 µM (top of the series)
# [10] = qHTS assay to identify small molecules that stimulate interleukin-8 (IL-8) secretion (AID 651758; active means well fitted activation curve with a large enough effect in the signal ratio; inconclusive means small, poorly fitted or top-dose-only effect, or effect the other way, or a change in a side signal; the % refers to the signal ratio; further: 0% is about no effect); details: HTRF ratio (665/615); activation: at 92.2 µM (top of the series)
# How it was run: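 Secreted IL-8 measured by TR-FRET sandwich (cryptate and XL665 antibodies) from THP-1 cells exposed to compound overnight (16 hrs, 37 C).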
# [11] = qHTS assay for small molecule agonists of the antioxidant response element (ARE) signaling pathway measured by Nrf2-dependant transcriptional activity (AID 720636);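 further: HepG2 cells with an ARE-driven luciferase reporter; % of control where 0% means no effect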
# How it was run: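 Reporter gene assay, HepG2 ARE-luc: 16 hr compound, 37 C, 5% CO2; read-out luciferase luminescence.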
# [12] = Cell Viability - LYMP2-009 (AID 968; active means well fitted curve in the direction sought with a large enough effect; inconclusive means small, poorly fitted or top-dose-only effect, or another doubt; inactive means no such curve, though single readings can be large; an effect the other way counts as inactive or inconclusive;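 further: cells exposed to compound for 24 h at 37 °C; 0% = DMSO alone and the full-kill end = tetraoctylammonium bromide at 92 µM; nearly all actives have a fitted effect of over 55% in size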); details: LYMP2-009 lymphoblastoid cell viability; activity change, negative = viability loss: at 92.2 µM (top of the series)
# [13] = Cell Viability - LYMP2-022 (AID 987; active means well fitted curve in the direction sought with a large enough effect; inconclusive means small, poorly fitted or top-dose-only effect, or another doubt; inactive means no such curve, though single readings can be large; an effect the other way counts as inactive or inconclusive;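 further: 0% = DMSO alone and full effect = tetraoctylammonium bromide at 92 µM; nearly all actives have a fitted effect of over 55% in size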)
# How it was run: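 LYMP2-022 lymphoblastoid cells (2500/well, complete medium) were treated with compounds for 24 hours at 37 C; intracellular ATP was then read by CellTiter-Glo luminescence after 30 min at room temperature. AC50 values were derived from Hill-equation fits.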
# [14] = Cell Viability - LYMP2-024 (AID 988; active means well fitted curve in the direction sought with a large enough effect; inconclusive means small, poorly fitted or top-dose-only effect, or another doubt; inactive means no such curve, though single readings can be large; an effect the other way counts as inactive or inconclusive;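 further: plate controls were DMSO only for no effect and 92 µM tetraoctylammonium bromide for full effect; nearly all actives have a fitted effect of over 60% in size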)
# How it was run: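 Human lymphoblastoid LYMP2-024 cells (2500/well) rested 5 hr, then treated with compound for 24 hr at 37 C in complete medium. Viability was measured as intracellular ATP by CellTiter-Glo luminescence. AC50 values came from Hill-equation fits.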
# [15] = target: Peroxisome proliferator-activated receptor delta (Homo sapiens) (UniProt Q03181); test: qHTS assay for small molecule agonists of peroxisome proliferator-activated receptor delta signaling (AID 588534; calls by dose curve;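 further: 0% = DMSO basal wells and 100% = positive control agonist at 10 µM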); details: HEK293T PPARdelta-UAS-bla, beta-lactamase ratio, 18 h; activation: at 76.7 µM (top of the series) unless noted
# How it was run: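 Cells carrying a PPAR-delta beta-lactamase reporter were treated with compounds for 18 h at 37 °C in agonist mode. CCF4 fluorescence was read after 2 h; EC50 and efficacy from Hill fits.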
# [16] = qHTS assay for small molecule antagonists of the retinoid-related orphan receptor gamma (ROR-gamma) signaling pathway - cell viability counter screen (AID 720652);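 further: potency means the concentration at half of the fitted maximal effect; compound exposure lasted 16 hr before ATP read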
# How it was run: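 CHO cells carrying TET-inducible ROR and RORE-luciferase reporter, plated 5 hr, then dosed with compound plus doxycycline. After 16 hr at 37 C, viability read as intracellular ATP by CellTiter-Glo luminescence.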
# [17] = target: Retinoic acid receptor RXR-alpha (Homo sapiens) (UniProt P19793); test: qHTS assay for small molecule antagonists of retinoid X receptor alpha signaling (AID 588546; active means well fitted inhibition curve with a large enough effect in the signal ratio, with a control signal flat, not every such curve was filed as active; inconclusive means small, poorly fitted or top-dose-only effect, or effect the other way, or a change in a side signal; inactive means no such curve, though single readings can be large or run the other way; the % refers to the signal ratio;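 further: cells stimulated with 9-cis-retinoic acid as agonist; on the % scale 0 is the no-effect control and ±100 the full control effect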); details: HEK293T RXRa-UAS-bla, beta-lactamase ratio, antagonist mode
# How it was run: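 Beta-lactamase reporter inhibition, read as CCF4 fluorescence ratio (ex 405, em 460/530 nm) after 2 h at RT. HEK293T UAS-bla cells, 2500/well, were stimulated with 9-cis-RA at 500 or 100 nM final alongside test compound for 18 h at 37 C.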
# [18] = target: Glucocorticoid receptor (Homo sapiens) (UniProt P04150); test: qHTS assay for small molecule agonists of glucocorticoid receptor signaling (AID 588532; active means well fitted curve in the direction sought with a large enough effect in the signal ratio, with a control signal flat; inconclusive means small, poorly fitted or top-dose-only effect, or a change in a side signal; inactive means no such curve, though single readings can be large or run the other way; the % refers to the signal ratio; further: potency means the concentration at half of the fitted maximal effect); details: HeLa MMTV-bla, beta-lactamase ratio, agonist, 18 h; activation: hits give high values, percent of dexamethasone control, DMSO zero
# How it was run: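 Using MMTV-bla HeLa cells in medium with 1% stripped FBS and 25 mM HEPES, compounds were titrated and incubated overnight-length (18 h). Beta-lactamase cleavage of CCF4 was quantified by dual-emission fluorescence.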
# [19] = qHTS assay for small molecule agonists of the antioxidant response element (ARE) signaling pathway measured by Nrf2-dependant transcriptional activity - cell viability counter screen (AID 720653); details: ARE-bla HepG2 viability, CellTiter-Glo ATP luminescence, 16 h; max response: hits give low values; further: on the % scale 0 is the no-effect control and ±100 the full control effect
# How it was run: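 Cytotoxicity counter screen: intracellular ATP quantified by CellTiter-Glo luminescence in the same ARE-bla HepG2 plates, after 16 h compound exposure and a 2 h beta-lactamase substrate step.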
# Tags describe the fitted curve by direction and shape or compound fluorescence and quenching.
# Chain of UniProt Q03181 (Q03181 whole entry, looked up): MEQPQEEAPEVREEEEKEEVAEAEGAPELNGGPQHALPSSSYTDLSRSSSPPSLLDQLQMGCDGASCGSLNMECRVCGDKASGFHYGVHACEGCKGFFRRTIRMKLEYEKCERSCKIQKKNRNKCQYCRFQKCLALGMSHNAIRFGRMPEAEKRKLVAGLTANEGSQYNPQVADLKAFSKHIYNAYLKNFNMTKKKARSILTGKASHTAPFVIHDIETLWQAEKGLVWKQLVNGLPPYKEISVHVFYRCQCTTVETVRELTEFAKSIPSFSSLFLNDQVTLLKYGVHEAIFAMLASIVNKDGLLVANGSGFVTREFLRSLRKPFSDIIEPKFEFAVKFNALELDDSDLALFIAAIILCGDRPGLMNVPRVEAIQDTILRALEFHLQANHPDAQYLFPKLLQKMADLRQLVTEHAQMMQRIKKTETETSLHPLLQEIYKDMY
# Chain of UniProt P03372 (P03372 whole entry, looked up): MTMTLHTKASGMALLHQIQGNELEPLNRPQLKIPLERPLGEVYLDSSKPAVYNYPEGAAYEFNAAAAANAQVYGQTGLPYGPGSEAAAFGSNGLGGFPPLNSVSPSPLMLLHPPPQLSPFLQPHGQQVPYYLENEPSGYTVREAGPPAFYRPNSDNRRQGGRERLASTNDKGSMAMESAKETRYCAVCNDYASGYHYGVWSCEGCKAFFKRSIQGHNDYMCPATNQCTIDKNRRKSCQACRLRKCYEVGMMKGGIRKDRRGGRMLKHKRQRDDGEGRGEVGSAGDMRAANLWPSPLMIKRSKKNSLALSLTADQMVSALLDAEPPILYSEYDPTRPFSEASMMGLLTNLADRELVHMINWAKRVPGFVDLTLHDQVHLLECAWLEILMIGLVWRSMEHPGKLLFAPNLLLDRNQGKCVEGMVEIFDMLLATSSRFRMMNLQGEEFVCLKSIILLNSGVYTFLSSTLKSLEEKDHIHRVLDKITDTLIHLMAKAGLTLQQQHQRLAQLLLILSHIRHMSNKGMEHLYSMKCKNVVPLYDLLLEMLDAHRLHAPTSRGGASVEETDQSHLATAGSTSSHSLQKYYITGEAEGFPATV
# Chain of UniProt P10828 (P10828 whole entry, looked up): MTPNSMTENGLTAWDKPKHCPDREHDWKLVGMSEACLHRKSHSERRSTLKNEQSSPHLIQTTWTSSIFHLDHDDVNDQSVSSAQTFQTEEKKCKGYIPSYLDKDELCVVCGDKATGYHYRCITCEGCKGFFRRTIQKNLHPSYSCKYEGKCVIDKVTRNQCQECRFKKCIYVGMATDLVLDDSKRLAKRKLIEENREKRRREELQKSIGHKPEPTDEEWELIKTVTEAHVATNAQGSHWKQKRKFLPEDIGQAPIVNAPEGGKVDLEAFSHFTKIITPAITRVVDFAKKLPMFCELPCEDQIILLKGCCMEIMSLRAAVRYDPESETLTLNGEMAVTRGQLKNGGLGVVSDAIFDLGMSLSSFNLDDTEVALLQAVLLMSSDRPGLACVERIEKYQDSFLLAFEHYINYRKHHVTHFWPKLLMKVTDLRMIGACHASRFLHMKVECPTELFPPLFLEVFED
# Chain of UniProt P19793 (P19793 whole entry, looked up): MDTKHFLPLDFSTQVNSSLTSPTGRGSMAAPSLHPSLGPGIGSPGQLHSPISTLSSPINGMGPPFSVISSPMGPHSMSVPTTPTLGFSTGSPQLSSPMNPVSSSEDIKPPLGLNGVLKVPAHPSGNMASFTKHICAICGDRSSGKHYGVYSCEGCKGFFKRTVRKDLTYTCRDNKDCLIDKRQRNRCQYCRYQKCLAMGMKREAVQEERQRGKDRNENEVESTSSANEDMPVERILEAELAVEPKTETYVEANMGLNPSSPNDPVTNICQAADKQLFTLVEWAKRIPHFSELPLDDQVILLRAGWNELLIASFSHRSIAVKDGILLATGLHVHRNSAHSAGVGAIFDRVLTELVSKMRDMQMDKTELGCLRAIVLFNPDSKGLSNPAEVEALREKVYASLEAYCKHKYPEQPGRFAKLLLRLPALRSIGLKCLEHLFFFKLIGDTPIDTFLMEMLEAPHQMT
structure (smiles),measurement,setting,value
C1CCC2(CCCCO2)OC1,"activity, negative = inhibition",[1],inconclusive: -18.7%
same,Potency,[2],inactive
same,"activity, negative = inhibition",[3],inconclusive: 21.8%
same,activity change % (negative = inhibition),[4],inactive: 7.84%
C[Si]1(C)O[Si](C)(C)O[Si](C)(C)O[Si](C)(C)O[Si](C)(C)O1,Potency,[1],inactive
same,Potency,[5],inactive
same,"activity change, negative = inhibition",[6],inconclusive: 0.454%
same,Potency,[4],"inconclusive [cytotoxic, side channel, full curve, poor fit]"
same,Potency,[7],inactive
Nc1cccc([N+](=O)[O-])c1,Potency,[8],inactive
same,Potency,[1],inactive
same,"activity change, negative = inhibition",[2],inconclusive: 27.7%
same,Potency,[9],inactive
same,activity change % (negative = inhibition),[4],inactive: -4.44%
same,Potency,[10],inactive
same,Potency,[11],inactive
CCCCC/C=C\C/C=C\CCCCCCCC(=O)OC,"activity, negative = inhibition",[1],inconclusive: -26.4%
same,Potency,[3],inactive
same,activation,[7],inconclusive: -6.53%
Cc1ccc(S(=O)(=O)NC2CCCCC2)cc1,Potency,[12],inactive
same,Potency,[13],inactive
same,Potency,[14],inactive
same,Potency,[1],inactive
same,Potency,[15],inactive
same,Potency,[5],inactive
same,"activity, negative = inhibition",[3],inconclusive: 1.29%
same,Potency,[10],inactive
same,Potency,[11],inactive
same,Potency,[16],"inconclusive [rising, partial curve, poor fit]"
CCCCOCCOCCO,"activity, negative = inhibition",[1],inconclusive: -0.981%
same,Potency,[3],inactive
same,max response,[17],inactive: -25.6%
same,Potency,[7],inactive
C=C[Si](C)(C)O[Si](C)(C)C=C,"activity, negative = inhibition",[1],inconclusive: 1.76%
same,Potency,[18],"inconclusive [side channel, falling, partial curve, poor fit]"
O=C(Cl)c1ccc(C(=O)Cl)cc1,"activity, negative = inhibition",[1],inconclusive: -23.6%
same,Potency,[18],"inconclusive [side channel, falling, full curve, poor fit]"
same,Potency,[15],inactive
same,Potency,[2],inactive
same,Potency,[5],"inconclusive [side channel, falling, partial curve, poor fit]"
same,"activity, negative = inhibition",[3],inconclusive: 7.3%
same,activation,[7],inconclusive: 8.77%
same,Potency,[11],inactive
same,max response,[19],inactive: -8.12%
